In PubChem BioAssay AID686978 (National Center for Advancing Translational Sciences (NCATS), 2013):
Values joined by “and” are separate entries in the source; they are usually repeats but may differ in a detail not shown here. Equal values may be shown once. Out of some 420,000 compounds screened, about 64,000 (15%) were called active. Inconclusive results, whose numbers are uncertain, are shown with a selection of clear calls. Calls follow the shape of the dose curve; as a rule, active = well fitted inhibition curve with a large enough effect; inconclusive = small, poorly fitted or top-dose-only effect; inactive = flat fitted curve, though single readings scatter. Where the call is inconclusive, the potency comes from a doubtful curve fit.
% is scaled to controls: 0 for no effect and ±100 for the full control effect; potency is read from the fitted curve at half-maximal effect; tags tell the direction and shape of the fitted curve.

Experiment: qHTS for Inhibitors of human tyrosyl-DNA phosphodiesterase 1 (TDP1): qHTS in cells in absence of CPT; also: nearly all actives have a fitted effect of over 55% in size
Conditions: DT40 Tdp1-/- hTDP1 cells, no CPT, ATP luminescence, 48 h; activity change, negative = growth inhibition: at 46.2 µM (top of the series)
Summary of the method: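 No-CPT arm: Tdp1-/-;hTDP1 DT40 cells (400/well) plus compounds, incubated ≥48 hr at 37 °C. Readout CellTiter-Glo luminescence.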
For CCN(CC)c1ccc(NC(=O)c2cc3c(=O)n4cccc(C)c4nc3n2C)c(C)c1, the Potency was inconclusive: 16.4 µM [inhibitor, partial curve]. In the case of Cc1oc(-c2cc3c(cc2Cl)OCO3)nc1CN1CCCC1c1ccc(F)cc1 (centres undefined), the activity change, negative = growth inhibition is reported as inconclusive: -31.9% [inhibitor]. With CCCCN1C(C)=CC(=C2C(=O)c3ccccc3C2=O)C=C1C the activity change, negative = growth inhibition was inconclusive: -33.1% [inhibitor]. With COc1ccc(-c2c(C#Cc3ccccc3)c3ccccc3n2C)cc1 the Potency was inconclusive: 14.6 µM [inhibitor, partial curve]. In the case of CCOC(=O)[C@]12CCC=C1N(Cc1ccc3c(c1)OCO3)C(=O)[C@H](CC(=O)N1CCSCC1)C2, the Potency is reported as inconclusive: 29.1 µM [inhibitor, single point]. For Fc1cc(F)cc(NC(=S)N2CCC(c3ccccc3)C2)c1 (centres undefined), the “activity change, negative = growth inhibition” value was inactive: 21.1%. For CCNCc1ccc(OCc2ccccc2F)c(OC)c1, the Potency was inconclusive: 23.1 µM [inhibitor, single point]. With COc1ccc(-c2ccc(NC(=O)c3ccc(Br)o3)cc2)nn1 the Potency was inconclusive: 16.4 µM [inhibitor, partial curve]. With CCCCCNC(=O)CCn1c(=O)[nH]c2ccccc2c1=O the Potency was inconclusive: 23.1 µM [inhibitor, single point]. For CCOC(=O)N1CCN(C(=O)COc2ccc(Br)cc2Cl)CC1, the activity change, negative = growth inhibition was inconclusive: -33.6% [inhibitor]. For CCn1nc(C)c2c(-c3ccccc3)cc(=O)n(C(C)C(=O)NCc3ccc(C)cc3)c21 (centres undefined), the Potency was inconclusive: 29.1 µM [inhibitor, single point]. In the case of CN(C(=O)CN(CCO)CC(=O)N(C)C(C)(C)Cc1ccccc1)C(C)(C)Cc1ccccc1, the Potency is reported as inconclusive: 12.8 µM [inhibitor, partial curve, poor fit] and inconclusive: 6.51 µM [inhibitor, single point]. With CC(=O)c1ccc(NC(=O)c2nc3ccccc3n(C)c2=O)cc1 the “activity change, negative = growth inhibition” value was inactive: -24.8%. For Cc1cc(C)c(NC(=O)c2ccccc2CCc2ccccc2)c(C)c1, the Potency was inconclusive: 18.4 µM [inhibitor, single point]. For COc1cc(OC)cc(-c2sc3ccc(OC)cc3c2-c2ccc(O)cc2)c1, the activity change, negative = growth inhibition was inconclusive: -36.9% [inhibitor]. With CN(CC(=O)NCCN1CCN(c2ccccc2)CC1)S(=O)(=O)c1ccc2c(c1)CCC(=O)N2 the activity change, negative = growth inhibition was inconclusive: -37.2% [inhibitor]. In the case of CCOc1ccc(N(CC(=O)Nc2ccccc2C(=O)NC(C)CC)S(C)(=O)=O)cc1 (centres undefined), the Potency is reported as inconclusive: 29.1 µM [inhibitor, single point]. For Cc1cc(Br)ccc1OCC(=O)NC1CCCC1, the Potency was inconclusive: 23.1 µM [inhibitor, single point]. For O=C(CC(=O)c1cccnc1)c1ccccc1, the Potency was active: 20.6 µM. With Cn1cc(Cl)c(C(=O)N2CCN(c3ncccn3)CC2)n1 the “activity change, negative = growth inhibition” value was inactive: -3.6%. With Cc1ccc(C(=O)NC(C)(COc2nonc2C)COc2nonc2C)cc1 the Potency was inconclusive: 10 µM [inhibitor, partial curve]. With CCOc1ccc(-n2nnnc2SCC(=O)NC2CCCC2)cc1 the Potency was inconclusive: 20.6 µM [inhibitor, single point]. In the case of O=C1C(c2ccc(F)cc2)N(Cc2ccc3c(c2)OCO3)C(=O)CN1C1CCCC1 (centres undefined), the Potency is reported as inconclusive: 22.4 µM [inhibitor, partial curve]. In the case of COc1cccc(Oc2nnnn2-c2ccccc2)c1, the “activity change, negative = growth inhibition” value is reported as inactive: 3.93%. For CC(O)(c1ccc(F)c(F)c1)c1nc(-c2cccc(C(F)(F)F)c2)cs1 (centres undefined), the Potency was inconclusive: 29.1 µM [inhibitor, single point]. With COc1ccc(/C=C/c2nc3ccccc3c(=O)n2-c2cccc(C(F)(F)F)c2)cc1 the Potency was active: 11.6 µM. For O=C(Cn1ncc2c3ccccc3n(Cc3ccccc3)c2c1=O)NC1CCCC1, the “activity change, negative = growth inhibition” value was inactive: 0.538%. In the case of Cn1nc(C(F)(F)F)c(C#N)c1N1CCN(c2ccccc2)CC1, the Potency is reported as active: 14.6 µM. In the case of COc1ccccc1-n1c(C)nnc1SCC(=O)Nc1cc(C)cc(C)c1, the Potency is reported as inconclusive: 23.1 µM [inhibitor, single point]. In the case of COCCSc1ncnc2c1oc1nc3c(cc12)COC(C)(C)C3, the Potency is reported as inconclusive: 18.4 µM [inhibitor, partial curve]. For O=C(NCCSCc1ccco1)Nc1ccc(Cl)cc1, the Potency was active: 11.6 µM. With CCCc1cc(C(=O)OCC(=O)N2CCN(c3ccc(OC)cc3)CC2)sc1C the Potency was inconclusive: 29.1 µM [inhibitor, single point]. For COc1ccccc1-c1cnc2c(Nc3cccc(OC(F)(F)C(F)F)c3)nccn12, the Potency was inconclusive: 16.4 µM [inhibitor, single point]. For O=C(CCS(=O)(=O)c1ccc(Cl)cc1)N1CCN(S(=O)(=O)c2cccs2)CC1, the “activity change, negative = growth inhibition” value was inactive: -25%. With CCCc1nc(SCC(=O)NNC(=O)C2CCCCC2)c2ccccc2n1 the “activity change, negative = growth inhibition” value was inactive: -11.2%. In the case of CC(=O)c1c(C)[nH]c(C(=O)N2CCN(S(=O)(=O)c3ccc(C)cc3C)CC2)c1C, the Potency is reported as active: 18.4 µM. For CCN1C=C(Cc2ccc(F)cc2)C2=C(C1)C(c1ccc(F)cc1)C(C#N)=C(N)O2 (centres undefined), the Potency was active: 16.4 µM. With CO/N=C/c1ccc(Sc2ccc(C)cc2)c([N+](=O)[O-])c1 the Potency was inconclusive: 29.1 µM [inhibitor, single point]. With Cc1ccc(S(=O)(=O)Nc2cccc(C(=O)NCCCN3CCCC3=O)c2)cc1F the Potency was inconclusive: 16.4 µM [inhibitor, single point]. With Cc1ccc(CN(C(=O)COc2ccc(Cl)cc2Cl)C2CCS(=O)(=O)C2)o1 (centres undefined) the Potency was inconclusive: 29.1 µM [inhibitor, single point]. With O=C(OCc1ccccc1)N1CCC2CC1c1cc(Cl)ccc12 (centres undefined) the Potency was inconclusive: 29.1 µM [inhibitor, single point]. For C/C=C(\C)C(=O)OC1[C@@H]2C=C3C4CC(=O)OC(c5ccoc5)[C@]4(C)CCC3[C@@](C)(C2=O)C(C(O)C(=O)OC)C1(C)C (some centres undefined), the “activity change, negative = growth inhibition” value was inactive: -2.98%. For O=S(=O)(Cc1ccccc1)Oc1ccccc1, the “activity change, negative = growth inhibition” value was inactive: 11.8%. For COc1cccc(C(=O)N2CCN(C(=O)c3ccc(-c4ccccc4)cc3)CC2)c1OC, the Potency was inconclusive: 25.9 µM [inhibitor, single point].
